In PubChem BioAssay (Tox21):
“And” between values parts separate entries of the source, which are not always exact repeats. Identical values can stand only once. The shares of active, inactive and inconclusive entries below differ from those in the screen. For some of these results: A potency beside an inconclusive call is a rough fit, not a confirmed value. The source made the active and inactive calls. Unless noted, calls follow the shape of the dose curve; as a rule, active = well fitted curve in the direction sought with a large enough effect in the repeat runs; inconclusive = weak or mixed curves; inactive = no such curve, though single readings can be large; an effect the other way counts as inactive or inconclusive.

Legend:
[1] = qHTS assay to identify small molecule antagonists of the peroxisome proliferator-activated receptor delta (PPARd) signaling pathway - cell viability counter screen (AID 743213); conditions: PPARd-bla HEK293H viability, CellTiter-Glo luminescence, 17 h; viability change, negative = cytotoxic: at 62 µM (top of the series) unless noted; also: nearly all actives have a fitted effect of over 50% in size; also: potency is read from the fitted curve at half-maximal effect
Summary of the method: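 CellTiter-Glo was added to PPARd-bla HEK293H wells following 17 h compound treatment in the presence of 300 nM L165041. Luminescence was recorded after 30 min at room temperature.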

[2] = biological target: Vitamin D3 receptor (Homo sapiens) (UniProt P11473); test: qHTS assay to identify small molecule antagonists of the vitamin D receptor (VDR) signaling pathway (AID 743223; active = well fitted inhibition curve with a large enough effect in the signal ratio in the repeat runs, not every such curve was filed as active; inconclusive = weak or mixed curves, or effect the other way; inactive = no such curve, though single readings can be large or run the other way; the % refers to the signal ratio; also: potency is read from the fitted curve at half-maximal effect; as to activity change, negative = inhibition: % is scaled to controls: 0 for no effect and ±100 for the full control effect); conditions: VDR-UAS-bla HEK293T, beta-lactamase FRET ratio, 16 h; activity change, negative = inhibition: at 61 µM (top of the series) unless noted
Chain of UniProt P11473 (P11473 whole entry, looked up): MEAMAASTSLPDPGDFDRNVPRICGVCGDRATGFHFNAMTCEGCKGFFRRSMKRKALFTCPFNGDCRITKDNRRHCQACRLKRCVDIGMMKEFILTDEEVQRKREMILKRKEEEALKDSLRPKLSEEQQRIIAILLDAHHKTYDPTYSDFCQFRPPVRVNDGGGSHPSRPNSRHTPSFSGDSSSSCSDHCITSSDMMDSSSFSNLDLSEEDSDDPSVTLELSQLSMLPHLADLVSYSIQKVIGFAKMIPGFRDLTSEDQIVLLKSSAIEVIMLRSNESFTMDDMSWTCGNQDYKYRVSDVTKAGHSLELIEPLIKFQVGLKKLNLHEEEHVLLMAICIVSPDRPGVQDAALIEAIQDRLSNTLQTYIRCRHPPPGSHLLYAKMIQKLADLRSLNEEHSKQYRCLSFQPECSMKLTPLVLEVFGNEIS
Summary of the method: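 Antagonist mode uses 1alpha,25-dihydroxyvitamin D3 at 3 nM final as stimulus. VDR-bla cells receive compounds in DMSO, incubate 16 h at 37C, then a beta-lactamase FRET substrate for 2 h at room temperature before fluorescence measurement.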

[3] = qHTS assay to identify small molecule agonists of the vitamin D receptor (VDR) signaling pathway - cell viability counter screen (AID 743224); conditions: VDR-bla HEK293T viability, CellTiter-Glo luminescence, 16 h; activity change, negative = cytotoxicity: at 62.6 µM (top of the series); also: potency is read from the fitted curve at half-maximal effect; nearly all actives have a fitted effect of over 50% in size
Summary of the method: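 Cytotoxicity counter screen: VDR-bla cells, 16 h compound exposure at 37C, 5% CO2; CellTiter-Glo luminescence, 30 min RT, same wells as bla read.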

[4] = qHTS assay to identify small molecule antagonists of the vitamin D receptor (VDR) signaling pathway - cell viability counter screen (AID 743225); conditions: VDR-bla HEK293T viability, CellTiter-Glo luminescence, 16 h; viability change, negative = cytotoxic: at 61 µM (top of the series) unless noted; also: nearly all actives have a fitted effect of over 50% in size; also: potency is read from the fitted curve at half-maximal effect
Summary of the method: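 Read-out: CellTiter-Glo luminescence measured 30 min after reagent addition at room temperature. Cells were VDR-bla HEK 293T exposed 16 h at 37C, 5% CO2, to compound with 3 nM final calcitriol agonist.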

[5] = qHTS assay to identify small molecule agonists of the endoplasmic reticulum stress response signaling pathway - cell viability counter screen (AID 1159517; calls by dose curve; also: nearly all actives have a fitted effect of over 50% in size; also: potency is read from the fitted curve at half-maximal effect)
Summary of the method: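 ESRE-bla HeLa cells (1,500/well) were plated overnight at 37 C and exposed to compounds for 5 hr. After the 2 hr beta-lactamase substrate read, CellTiter-Glo went into the same wells, and luminescence was read after 30 min at room temperature.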

[6] = biological target: Nuclear receptor ROR-gamma (Homo sapiens) (UniProt P51449); test: qHTS assay to identify small molecule antagonists of the retinoid-related orphan receptor gamma (ROR-gamma) signaling pathway (AID 1159521; also: nearly all actives have a fitted effect of over 50% in size; also: potency is read from the fitted curve at half-maximal effect)
Summary of the method: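 CHO Tet-on RORγ, RORE-luc reporter. Cpd 2 h pre-incubation, then dox hyclate 1 uM final, 16 h, 37 C/5% CO2. ONE-Glo luminescence; decrease = antagonist.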

[7] = biological target: Retinoic acid receptor RXR-alpha (Homo sapiens) (UniProt P19793); test: qHTS assay to identify small molecule agonists of the RXR signaling pathway (AID 1159527; calls by dose curve; also: nearly all actives have a fitted effect of over 35% in size; also: potency is read from the fitted curve at half-maximal effect); conditions: HEK293T RXRa-UAS-bla, beta-lactamase ratio, 16 h; activation: at 76.8 µM (top of the series) unless noted
Chain of UniProt P19793 (P19793 whole entry, looked up): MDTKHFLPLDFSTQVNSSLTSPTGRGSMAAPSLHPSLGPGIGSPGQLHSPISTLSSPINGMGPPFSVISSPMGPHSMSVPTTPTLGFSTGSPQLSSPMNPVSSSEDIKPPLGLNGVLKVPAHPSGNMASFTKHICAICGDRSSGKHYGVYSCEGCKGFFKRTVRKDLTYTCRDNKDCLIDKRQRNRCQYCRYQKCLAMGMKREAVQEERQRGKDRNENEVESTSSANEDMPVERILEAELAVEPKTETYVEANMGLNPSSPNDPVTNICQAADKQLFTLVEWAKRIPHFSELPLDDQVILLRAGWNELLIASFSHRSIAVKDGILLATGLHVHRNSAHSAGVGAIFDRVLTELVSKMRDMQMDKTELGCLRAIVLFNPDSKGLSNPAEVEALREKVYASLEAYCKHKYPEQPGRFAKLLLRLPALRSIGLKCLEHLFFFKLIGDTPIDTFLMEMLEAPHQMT
Summary of the method: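 Read-out: beta-lactamase FRET ratio (405 nm excitation, 460 and 530 nm emission) after 2 hr substrate loading at room temperature. Cells were RXR-alpha-UAS-bla HEK 293T treated with compounds for 16 hr in 2% charcoal-stripped FBS medium.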

[8] = qHTS assay to identify small molecule antagonists of the retinoid-related orphan receptor gamma (ROR-gamma) signaling pathway - cell viability counter screen (AID 1159520); also: nearly all actives have a fitted effect of over 50% in size; also: potency is read from the fitted curve at half-maximal effect
Summary of the method: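 Cytotoxicity was read from cellular ATP (CellTiter-Glo luminescence) after 16 hr at 37 C with 1 uM doxycycline induction. The inducer was added 2 hr after compound transfer to Tet-on ROR gamma CHO cells.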

[9] = qHTS assay to identify small molecule antagonists of the farnesoid-X-receptor (FXR) signaling pathway - cell viability counter screen (AID 743221; active = well fitted cell-killing curve with a large enough effect in the repeat runs, not every such curve was filed as active; inconclusive = weak or mixed curves, or effect the other way; inactive = no such curve, though single readings can be large or run the other way); conditions: FXR-bla HEK293T viability, CellTiter-Glo luminescence, 16 h; activity change, negative = cytotoxicity: at 62.6 µM (top of the series)
Summary of the method: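 Luminescence from CellTiter-Glo measures cytotoxicity in GeneBLAzer FXR-UAS-bla HEK 293T cells. Cells were exposed to compounds with 50 uM chenodeoxycholic acid (final) for 16 h at 37 C, in wells also used for the reporter readout.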

[10] = qHTS assay to identify small molecule agonists of the farnesoid-X-receptor (FXR) signaling pathway - cell viability counter screen (AID 743218); conditions: FXR-bla HEK293T viability, CellTiter-Glo luminescence, 16 h; viability change, negative = cytotoxic: at 62.6 µM (top of the series) unless noted; also: nearly all actives have a fitted effect of over 45% in size; also: potency is read from the fitted curve at half-maximal effect
Summary of the method: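 Luminescence from CellTiter-Glo, read after 30 min at RT, reports viability of GeneBLAzer FXR-UAS-bla HEK 293T cells treated 16 h with compounds in the wells used for the beta-lactamase reporter.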

[11] = qHTS assay to identify small molecule antagonists of the retinoid acid receptor (RAR) signaling pathway - cell viability counter screen (AID 1159551); also: potency is read from the fitted curve at half-maximal effect; nearly all actives have a fitted effect of over 35% in size
Summary of the method: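 C3RL4 RARE-luciferase line; cpds + retinol 1 uM final, 6 h, 37 C/5% CO2; CellTiter-Glo ATP luminescence, 30 min RT.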

[12] = biological target: Peroxisome proliferator-activated receptor delta (Homo sapiens) (UniProt Q03181); test: qHTS assay to identify small molecule antagonists of the peroxisome proliferator-activated receptor delta (PPARd) signaling pathway (AID 743215; active = well fitted inhibition curve with a large enough effect in the signal ratio in the repeat runs, not every such curve was filed as active; inconclusive = weak or mixed curves, or effect the other way; inactive = no such curve, though single readings can be large or run the other way; the % refers to the signal ratio;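 also: cells stimulated with agonist L165041 at 300 nM final during compound exposure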; also: potency is read from the fitted curve at half-maximal effect); conditions: HEK293H PPARd-UAS-bla, beta-lactamase FRET ratio, antagonist, 17 h; ratio activity, negative = inhibition: at 62 µM (top of the series) unless noted
Chain of UniProt Q03181 (Q03181 whole entry, looked up): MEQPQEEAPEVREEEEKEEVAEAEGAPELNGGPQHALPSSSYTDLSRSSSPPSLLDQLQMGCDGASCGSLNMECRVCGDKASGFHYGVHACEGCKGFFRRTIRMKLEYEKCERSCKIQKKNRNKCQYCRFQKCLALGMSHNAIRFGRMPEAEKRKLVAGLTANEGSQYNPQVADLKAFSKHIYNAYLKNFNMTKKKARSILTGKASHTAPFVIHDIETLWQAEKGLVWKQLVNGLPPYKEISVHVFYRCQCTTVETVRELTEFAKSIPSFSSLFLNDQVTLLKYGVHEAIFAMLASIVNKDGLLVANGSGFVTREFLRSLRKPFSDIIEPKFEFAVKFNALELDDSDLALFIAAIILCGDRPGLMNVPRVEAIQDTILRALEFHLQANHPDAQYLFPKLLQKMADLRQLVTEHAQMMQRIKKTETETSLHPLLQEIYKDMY
Summary of the method: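 HEK293H GeneBLAzer PPARd UAS-bla reporter cells; cpd + L165041 300 nM final, 17 h 37 C; LiveBLAzer B/G FRET substrate 2 h RT; fluorescence intensity read-out. Antagonist mode.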

[13] = qHTS assay to identify small molecule agonists of the AP-1 signaling pathway (AID 1159526; calls by dose curve; also: potency is read from the fitted curve at half-maximal effect); conditions: ME-180 (cervical carcinoma) AP-1-bla reporter, beta-lactamase FRET ratio, 5 h; activation: at 76.8 µM (top of the series) unless noted
[14] = qHTS assay to identify small molecule agonists of the AP-1 signaling pathway - cell viability counter screen (AID 1159525; calls by dose curve; also: nearly all actives have a fitted effect of over 55% in size)
Summary of the method: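 Intracellular ATP by Cell Titer Glo luminescence (30 min, RT) in the same ME-180 AP-1-bla wells after the 5 h compound exposure at 37 °C. Normalised to tetra n-octyl ammonium bromide and DMSO controls.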

[15] = qHTS assay to identify small molecule agonists of the RXR signaling pathway - cell viability counter screen (AID 1159529)
Summary of the method: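 HEK 293T RXRa-bla cells, 2% CS-FBS; 5 h settle; cpd 16 h 37 C, 5% CO2; CellTiter-Glo 30 min RT, luminescence. Tetraoctyl ammonium bromide as positive control.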

[16] = biological target: Peroxisome proliferator-activated receptor delta (Homo sapiens) (UniProt Q03181); test: qHTS assay to identify small molecule agonists of the peroxisome proliferator-activated receptor delta (PPARd) signaling pathway (AID 743212; calls by dose curve; also: potency is read from the fitted curve at half-maximal effect); conditions: HEK293H PPARd-UAS-bla, beta-lactamase FRET ratio, 17 h; activation: at 62.6 µM (top of the series) unless noted
Summary of the method: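 Beta-lactamase reporter readout: a ratiometric FRET signal from the LiveBLAzer substrate after 2 h at room temperature. Compound exposure at 37 °C in PPARδ-bla HEK293H cells driven by an upstream activator sequence.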

[17] = biological target: Bile acid receptor (Homo sapiens) (UniProt Q96RI1); test: qHTS assay to identify small molecule agonists of the farnesoid-X-receptor (FXR) signaling pathway (AID 743220; active = well fitted activation curve with a large enough effect in the signal ratio in the repeat runs, not every such curve was filed as active; inconclusive = weak or mixed curves, or effect the other way; the % refers to the signal ratio; also: % is scaled to controls: 0 for no effect and ±100 for the full control effect); conditions: HEK293T FXR-UAS-bla, beta-lactamase FRET ratio, 16 h; activation: at 62.6 µM (top of the series) unless noted
Chain of UniProt Q96RI1 (Q96RI1 whole entry, looked up): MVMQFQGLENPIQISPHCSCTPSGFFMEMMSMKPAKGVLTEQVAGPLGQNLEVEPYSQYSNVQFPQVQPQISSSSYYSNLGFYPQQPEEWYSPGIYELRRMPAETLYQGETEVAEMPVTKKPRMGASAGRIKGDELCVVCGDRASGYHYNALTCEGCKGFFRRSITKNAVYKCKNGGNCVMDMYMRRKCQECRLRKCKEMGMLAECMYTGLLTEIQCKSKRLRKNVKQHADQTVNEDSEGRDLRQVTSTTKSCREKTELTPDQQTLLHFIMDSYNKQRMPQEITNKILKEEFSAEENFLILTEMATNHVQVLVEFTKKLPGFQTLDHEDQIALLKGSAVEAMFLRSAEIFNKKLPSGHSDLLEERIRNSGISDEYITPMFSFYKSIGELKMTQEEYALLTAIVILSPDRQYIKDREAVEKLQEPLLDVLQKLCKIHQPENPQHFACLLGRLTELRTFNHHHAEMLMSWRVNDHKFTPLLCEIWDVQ
Summary of the method: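 FXR-UAS-bla HEK 293T cells carrying a UAS-driven beta-lactamase reporter were plated for 5 h at 37C/5% CO2, then exposed to DMSO-dissolved Tox21 10K compounds for 16 h at 37C. A LiveBLAzer B/G FRET substrate was loaded for 2 h at room temperature before fluorescence reading.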

[18] = biological target: Bile acid receptor (Homo sapiens) (UniProt Q96RI1); test: qHTS assay to identify small molecule antagonists of the farnesoid-X-receptor (FXR) signaling pathway (AID 743217; active = well fitted inhibition curve with a large enough effect in the signal ratio in the repeat runs, not every such curve was filed as active; inconclusive = weak or mixed curves, or effect the other way; inactive = no such curve, though single readings can be large or run the other way; the % refers to the signal ratio; also: % is scaled to controls: 0 for no effect and ±100 for the full control effect); conditions: HEK293T FXR-UAS-bla, beta-lactamase ratio, CDCA-stimulated, 16 h; activity change, negative = inhibition: at 62.6 µM (top of the series) unless noted
Summary of the method: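 Read-out: beta-lactamase FRET fluorescence (LiveBLAzer B/G substrate, 2 h, room temperature) in GeneBLAzer FXR-UAS-bla HEK 293T cells. Compounds were co-dosed with 50 uM chenodeoxycholic acid (final) and incubated 16 h at 37 °C.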

[19] = biological target: Vitamin D3 receptor (Homo sapiens) (UniProt P11473); test: qHTS assay to identify small molecule agonists of the vitamin D receptor (VDR) signaling pathway (AID 743222; calls by dose curve; also: % is scaled to controls: 0 for no effect and ±100 for the full control effect); conditions: HEK293T VDR-UAS-bla, beta-lactamase FRET ratio, 16 h; activation: at 63.5 µM (top of the series) unless noted
Summary of the method: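 Beta-lactamase reporter readout (LiveBLAzer B/G FRET, 2 h RT) in VDR-bla cells after 16 h compound treatment at 37C, 5% CO2; cells pre-incubated 4 h before pin transfer of DMSO solutions.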
Tags tell the direction and shape of the fitted curve or compound fluorescence and quenching.

With `CCCCCCCCCCO[C@@H]1O[C@H](CO)[C@@H](O)[C@H](O)[C@H]1O` the Potency [1] was inconclusive: 54.9 µM [cytotoxic, single point], the Potency [2] was “inactive” and the Potency [3] was inconclusive: 61.6 µM [cytotoxic, partial curve, poor fit]. The Potency [4] was inconclusive: 30.9 µM [cytotoxic, partial curve, poor fit], the Potency [5] was “inactive” and the Potency [6] was inconclusive: 68.6 µM [inhibitor, partial curve, poor fit]. The activation [7] was inconclusive: -20.3%.

For `COC(=O)CCc1ccc(OCC(O)CNC(C)C)cc1` (stereo not drawn), the Potency [2] was “inactive”, the Potency [5] was “inactive” and the Potency [8] was “inactive”. For the same compound, the Potency [7] was “inactive”.

With `NCCCC[C@H](N[C@@H](CCc1ccccc1)C(=O)O)C(=O)N1CCC[C@H]1C(=O)O` the Potency [9] was “inactive”, the Potency [5] was “inactive” and the Potency [8] was “inactive”.

In the case of `Nc1ccc(N)c([N+](=O)[O-])c1`, the Potency [10] is reported as inconclusive: 0.0436 µM [rising, full curve, poor fit], the Potency [5] is reported as inconclusive: 21.9 µM and the Potency [8] is reported as inconclusive: 61.1 µM [cytotoxic, partial curve, poor fit]. The Potency [11] was inconclusive: 54.5 µM [cytotoxic, partial curve].

In the case of `C[C@]12CC[C@@H]3c4ccc(O)cc4CC[C@H]3[C@@H]1CC[C@H]2O`, the Potency [12] is reported as “inactive”, the Potency [9] is reported as “inactive” and the activity change, negative = inhibition [2] is reported as inconclusive: -31.9%. The Potency [4] was inconclusive: 1.95 µM [cytotoxic, single point], the Potency [5] was inconclusive: 0.498 µM [cytotoxic, single point] and the Potency [6] was active: 17.5 µM and inconclusive: 61.1 µM [inhibitor, partial curve, poor fit]. For the same compound, the Potency [13] was inconclusive: 28 µM [activator, partial curve, poor fit] and inconclusive: 15.5 µM [activator, partial curve, poor fit].

With `CCOC(=O)CC(C)C` the Potency [12] was inconclusive: 0.11 µM [fluorescent, full curve, poor fit], the activity change, negative = inhibition [2] was inconclusive: 4.01% and the Potency [5] was “inactive”. The Potency [6] was “inactive”, the Potency [14] was “inactive” and the activation [7] was inconclusive: 17%.

With `C=Cc1cccc(C)c1` the Potency [1] was “inactive”, the Potency [5] was inconclusive: 15.3 µM [rising, partial curve, poor fit] and the Potency [6] was “inactive”. For the same compound, the Potency [7] was “inactive”.

In the case of `C[C@H]1NCc2cc(-c3ccc4c(=O)c(C(=O)O)cn(C5CC5)c4c3OC(F)F)ccc21`, the Potency [1] is reported as inconclusive: 0.146 µM [cytotoxic, single point], the Potency [5] is reported as inconclusive: 0.465 µM [cytotoxic, single point] and the Potency [6] is reported as inconclusive: 11.6 µM [inhibitor, partial curve, poor fit]. For the same compound, the activation [13] was inactive: -2.94% [at 15.8 µM] and the Potency [15] was inconclusive: 0.0005 µM.

In the case of `CCN(CC)c1ccc2c(-c3ccccc3C(=O)O)c3ccc(=[N+](CC)CC)cc-3oc2c1`, the Potency [16] is reported as inconclusive: 13.8 µM [rising, partial curve, poor fit], the ratio activity, negative = inhibition [12] is reported as inconclusive: 1.32% and the Potency [10] is reported as inconclusive: 0.155 µM [cytotoxic, full curve, poor fit]. The activation [17] was inconclusive: 7.24%, the Potency [2] was inconclusive: 19.5 µM [fluorescent, partial curve, poor fit] and the Potency [3] was inconclusive: 15.5 µM [cytotoxic, full curve]. For the same compound, the Potency [5] was “inactive”, the Potency [6] was “inactive” and the Potency [13] was inconclusive: 17.4 µM [activator, full curve]. For the same compound, the Potency [7] was inconclusive: 19.5 µM [rising, single point], the Potency [15] was inconclusive: 6.92 µM [cytotoxic, partial curve, poor fit] and the Potency [11] was active: 19.3 µM.

In the case of `O=C1C(O)=C(O)C(=O)C(O)=C1O`, the Potency [10] is reported as “inactive”, the Potency [4] is reported as “inactive” and the Potency [5] is reported as “inactive”. The Potency [6] was inconclusive: 0.0531 µM [inhibitor, full curve, poor fit], the Potency [13] was “inactive” and the Potency [7] was “inactive”.

With `C=C(C#N)C(=O)OCC` the Potency [1] was inconclusive: 5.49 µM [cytotoxic, single point], the Potency [12] was inconclusive: 12.3 µM [fluorescent, partial curve, poor fit] and the ratio activity, negative = inhibition [12] was inconclusive: 17%. For the same compound, the Potency [4] was “inactive”, the Potency [5] was inconclusive: 49 µM [cytotoxic, single point] and the Potency [8] was inconclusive: 61.1 µM [cytotoxic, partial curve, poor fit].

For `O=C1[C@H]2CCCC[C@H]2C(=O)N1CCCCN1CCN(c2nsc3ccccc23)CC1`, the Potency [18] was “inactive”, the activation [19] was inconclusive: -20.7% and the Potency [2] was inconclusive: 0.301 µM [fluorescent, full curve, poor fit]. For the same compound, the Potency [5] was “inactive”, the Potency [6] was inconclusive: 0.0422 µM [inhibitor, full curve, poor fit] and the Potency [14] was “inactive”. The Potency [13] was “inactive”, the Potency [7] was inconclusive: 13.4 µM [rising, partial curve] and the Potency [15] was inconclusive: 13.4 µM [cytotoxic, partial curve, poor fit].
